Results on 153 variants are retold here after a collection of fitness landscapes (doi:10.1126/science.1257360).

Some of the results follow.

B1: PhoQ; a variant is named by its letters at X, in order, P23837 (parent)
chain: MKKLLRLFFPLSLRVRFLLATAAVVLVLSLAYGMVALIGYSVSFDKTTFRLLRGESNLFYTLAKWENNKLHVELPENIDKQSPTMTLIYDENGQLLWAQRDVPWLMKMIQPDWLKSNGFHEIEADVNDTSLLLSGDHSIQQQLQEVREDDDDAEMTHSVAVNVYPATSRMPKLTIVVVDTIPVELKSSYMVWSWFIYVLSANLLLVIPLLWVAAWWSLRPIEALAKEVRELEEHNRELLNPATTRELTSLVRNLNRLLKSERERYDKYRTTLTDLTHSLKTPLXXLQXXLRSLRSEKMSVSDAEPVMLEQISRISQQIGYYLHRASMRGGTLLSRELHPVAPLLDNLTSALNKVYQRKGVNISLDISPEISFVGEQNDFVEVMGNVLDNACKYCLEFVEISARQTDEHLYIVVEDDGPGIPLSKREVIFDRGQRVDTLRPGQGVGLAVAREITEQYEGKIVAGESMLGGARMEVIFGRQHSAPKDE

This assay covers variants of B1. The experiment in a line: enrichment ratio after two sorts for PhoP signalling (ratio (wild type AVST 3.29)); higher = more functional. The following applies: with PhoP (E. coli).
Turning to WTFQ, the enrichment ratio was at most 0.25.

As to PWCD, the enrichment ratio was at most 0.25.

On to ESSC, for which the enrichment ratio was at most 0.25.

RKNG: the enrichment ratio was at most 0.25.

For YIVH, the enrichment ratio is at most 0.25.

With LEFN, the enrichment ratio worked out at 0.973.

In the case of WFIK, the enrichment ratio was at most 0.25.

Take DKPF: the enrichment ratio was at most 0.25.

As for ITAE, the enrichment ratio was at most 0.25.

Take SYGL: the enrichment ratio is at most 0.25.

Consider ERII, for which the enrichment ratio was at most 0.25.

For SVQY, the enrichment ratio is at most 0.25.

Consider RLAQ, for which the enrichment ratio was at most 0.25.

As to RCVV, the enrichment ratio was at most 0.25.

Regarding VSGR, the enrichment ratio was at most 0.25.

For the variant HHHG, the enrichment ratio is at most 0.25.

Turning to FYEV, the enrichment ratio is at most 0.25.

For the variant ARKD, the enrichment ratio was at most 0.25.

For the variant PPSN, the enrichment ratio was at most 0.25.

Regarding PVEW, the enrichment ratio was at most 0.25.

WIVM: the enrichment ratio was at most 0.25.

As to KGLY, the enrichment ratio was at most 0.25.

On to ECHK, for which the enrichment ratio is at most 0.25.

As to TCDD, the enrichment ratio is at most 0.25.

For TTKV, the enrichment ratio was at most 0.25.

As for QMHH, the enrichment ratio is at most 0.25.

As to ADIP, the enrichment ratio was at most 0.25.

With LDVE, the enrichment ratio was at most 0.25.

Take KTIM: the enrichment ratio is at most 0.25.

In the case of DKLW, the enrichment ratio is at most 0.25.

Consider IGNQ, for which the enrichment ratio is at most 0.25.

Turning to HALV, the enrichment ratio was found to be 3.66.

As for DRCF, the enrichment ratio is at most 0.25.

Turning to KDQS, the enrichment ratio is at most 0.25.

In the case of KSNG, the enrichment ratio is at most 0.25.

Turning to FFAF, the enrichment ratio is at most 0.25.

On to FDVT, for which the enrichment ratio was at most 0.25.

For YYLF, the enrichment ratio is at most 0.25.

As for VTMC, the enrichment ratio is at most 0.25.

As for HGEH, the enrichment ratio was at most 0.25.

On to RPNC, for which the enrichment ratio was at most 0.25.

In the case of STYC, the enrichment ratio amounted to 0.334.

For ITNN, the enrichment ratio is at most 0.25.

On to INEA, for which the enrichment ratio was at most 0.25.

As for NHIF, the enrichment ratio was at most 0.25.

As to ASHY, the enrichment ratio was at most 0.25.

In the case of MEQI, the enrichment ratio is at most 0.25.

Take MQAN: the enrichment ratio was found to be 2.41.

Regarding LVFL, the enrichment ratio was at most 0.25.

Consider EQMF, for which the enrichment ratio was at most 0.25.

For PATR, the enrichment ratio is at most 0.25.

Turning to DSQD, the enrichment ratio is at most 0.25.

For the variant QVRT, the enrichment ratio is at most 0.25.

Regarding PSPL, the enrichment ratio was at most 0.25.

Take TVPE: the enrichment ratio was at most 0.25.

In the case of EDCF, the enrichment ratio is at most 0.25.

In the case of ENTF, the enrichment ratio was at most 0.25.

With QLSG, the enrichment ratio stood at 1.54.

As for SIKH, the enrichment ratio was at most 0.25.

As to NNCL, the enrichment ratio came out at 2.05.

As for ITAV, the enrichment ratio was at most 0.25.

Take LYAV: the enrichment ratio is at most 0.25.

FAIM: the enrichment ratio is 0.693.

On to YQAY, for which the enrichment ratio is at most 0.25.

Take LFRA: the enrichment ratio was at most 0.25.

Consider MFHS, for which the enrichment ratio is at most 0.25.

Take VMKT: the enrichment ratio was at most 0.25.

With FPVI, the enrichment ratio was at most 0.25.

Regarding NESK, the enrichment ratio was at most 0.25.

For the variant EFNQ, the enrichment ratio is at most 0.25.

Consider EDMY, for which the enrichment ratio was at most 0.25.

On to GRTW, for which the enrichment ratio is at most 0.25.

Consider DDFK, for which the enrichment ratio was at most 0.25.

As to TQVF, the enrichment ratio came to 4.29.

For the variant KRAV, the enrichment ratio is at most 0.25.

Turning to KKKL, the enrichment ratio was at most 0.25.

Regarding GFME, the enrichment ratio was at most 0.25.

Take GRWF: the enrichment ratio turned out to be 0.713.

Consider PFCV, for which the enrichment ratio was at most 0.25.

On to YSYW, for which the enrichment ratio is at most 0.25.

TWAM: the enrichment ratio is at most 0.25.

SNIF: the enrichment ratio was at most 0.25.

Regarding EILF, the enrichment ratio was at most 0.25.

For the variant KPLL, the enrichment ratio was at most 0.25.

HAAN: the enrichment ratio was at most 0.25.

YRHC: the enrichment ratio was at most 0.25.

Turning to QRPP, the enrichment ratio is at most 0.25.

Regarding EGVA, the enrichment ratio was at most 0.25.

As to EPVW, the enrichment ratio was at most 0.25.

As to STAI, the enrichment ratio stood at 11.

For the variant GLQF, the enrichment ratio is at most 0.25.

In the case of LNGN, the enrichment ratio is at most 0.25.

For ETAS, the enrichment ratio is at most 0.25.

YMVC: the enrichment ratio was at most 0.25.

For TSPD, the enrichment ratio was at most 0.25.

Consider IYCT, for which the enrichment ratio is at most 0.25.

As to PGKR, the enrichment ratio is at most 0.25.

For AWRQ, the enrichment ratio is at most 0.25.

Consider MCSA, for which the enrichment ratio is at most 0.25.

Consider WSMN, for which the enrichment ratio was at most 0.25.

As for DAQL, the enrichment ratio is at most 0.25.

Turning to VMNF, the enrichment ratio was at most 0.25.

Turning to PIYR, the enrichment ratio was at most 0.25.

Take TFKN: the enrichment ratio was determined as 0.951.

On to VTSL, for which the enrichment ratio was 6.87.

VDEQ: the enrichment ratio is at most 0.25.

Take MDMV: the enrichment ratio turned out to be 1.28.

For EFYF, the enrichment ratio was at most 0.25.

On to GAIS, for which the enrichment ratio was at most 0.25.

PHIC: the enrichment ratio is at most 0.25.

Turning to IPGK, the enrichment ratio is at most 0.25.

As for LMIE, the enrichment ratio is at most 0.25.

HYII: the enrichment ratio is at most 0.25.

As for VCFQ, the enrichment ratio was at most 0.25.

As to QELA, the enrichment ratio is at most 0.25.

As for IILC, the enrichment ratio was at most 0.25.

DMYP: the enrichment ratio is at most 0.25.

For DMSH, the enrichment ratio came to 0.854.

Consider VAPP, for which the enrichment ratio was at most 0.25.

In the case of LVKN, the enrichment ratio is at most 0.25.

For MNAI, the enrichment ratio was found to be 4.33.

For the variant GYIA, the enrichment ratio was at most 0.25.

With EKSV, the enrichment ratio is at most 0.25.

Regarding MNKM, the enrichment ratio was at most 0.25.

YYSV: the enrichment ratio was at most 0.25.

Turning to PLVF, the enrichment ratio is at most 0.25.

FEFC: the enrichment ratio is at most 0.25.

RTSG: the enrichment ratio was at most 0.25.

With YFVC, the enrichment ratio was at most 0.25.

With PIKS, the enrichment ratio is at most 0.25.

Consider PWFW, for which the enrichment ratio was at most 0.25.

Regarding LGHP, the enrichment ratio is at most 0.25.

With GPEF, the enrichment ratio was at most 0.25.

For TCRA, the enrichment ratio is at most 0.25.

Consider FCNW, for which the enrichment ratio is at most 0.25.

In the case of TDKV, the enrichment ratio is at most 0.25.

Regarding RVHR, the enrichment ratio was at most 0.25.

For VMYI, the enrichment ratio was at most 0.25.

With FSRS, the enrichment ratio is at most 0.25.

Turning to FIRQ, the enrichment ratio was at most 0.25.

As to NLTD, the enrichment ratio is at most 0.25.

Turning to NSWG, the enrichment ratio was at most 0.25.

TQYI: the enrichment ratio was at most 0.25.

Regarding VPCE, the enrichment ratio is at most 0.25.

Consider FRAA, for which the enrichment ratio was at most 0.25.

For the variant EFNM, the enrichment ratio was at most 0.25.

Regarding KVHF, the enrichment ratio is at most 0.25.

Consider IDIH, for which the enrichment ratio was at most 0.25.

For TTEV, the enrichment ratio turned out to be 0.701.

With GLIL, the enrichment ratio came out at 1.59.

Take KELF: the enrichment ratio was at most 0.25.

On to GEWV, for which the enrichment ratio was at most 0.25.

For PTCA, the enrichment ratio was at most 0.25.
